{"source": "the supplement of paper PMC11417369", "note": "This is one part of the list."}
{"tested_on": "PfSIP2 AP2 domain 1 (GST-tagged)", "test": "gcPBM binding intensity (ln(normalized median fluorescence intensity)); higher = stronger DNA binding", "procedure,_shortened": "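After 1 h on an Agilent 4 × 180k array of primer-extended double-stranded 36-bp intergenic genomic probes and negative controls, bound GST-tagged P. falciparum DNA-binding domains were detected with Alexa488 anti-GST antibody and scanned at 488 nm. The domains had been expressed in E. coli, and binding took place in 1× PBS with 1% milk, 0.2 mg/ml BSA, 0.5% salmon testes DNA and 0.03% Triton X-100. Binding intensity is the highest Masliner-normalised natural-log median intensity across replicate spots of either probe orientation.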"}
{"sequence": "TTATATGTATTTCTTTGTACACATTTTTATATATAT [XGTACX_site1462]", "gcPBM binding intensity (ln)": 7.38}
{"sequence": "TATCATTTTTTTAAAACACACATAATAATATAAATA [CACACA_site2845]", "gcPBM binding intensity (ln)": 7.1}
{"sequence": "TAAATTTTATAAATCTGTACATATGAGCAAGAACAT [XGTACX_site7400]", "gcPBM binding intensity (ln)": 7.39}
{"sequence": "CACTTCAAAAAAATATGTACACATATATATATATAT [XGTACX_site3075]", "gcPBM binding intensity (ln)": 9.46}
{"sequence": "ATTATGCACCAACACACACACACACCCCTAAAAAAT [CACACA_site2568]", "gcPBM binding intensity (ln)": 10.8}
{"sequence": "TTTTTATGTTATCAAATAAATATAAATATAATTCAT [CACACA_negctrl_site1522]", "gcPBM binding intensity (ln)": 6.61}
{"sequence": "TAAAGAGTTACCATTTGTACTTACGCACACATAAAA [XGTACX_site3145]", "gcPBM binding intensity (ln)": 6.95}
{"sequence": "TATATTTGAAATATATGTACTTATAATACAGTTTAA [XGTACX_site8039]", "gcPBM binding intensity (ln)": 6.94}
{"sequence": "CACAGATAAATTAACACACACACACGGATATTTATA [CACACA_site7788]", "gcPBM binding intensity (ln)": 6.95}
{"sequence": "TTCCTTCAAAATTTAAGTAATAAGATAAAAATATAA [CACACA_negctrl_site1696]", "gcPBM binding intensity (ln)": 6.96}
{"sequence": "ATGTATACAAATATATGTACGTATGTTCTCTTCTTT [XGTACX_site7865]", "gcPBM binding intensity (ln)": 6.92}
{"sequence": "AATTTATATTAAAATTGTACATTTCTTCTATAATAC [XGTACX_site8639]", "gcPBM binding intensity (ln)": 6.94}
{"sequence": "AATATATTTAATGAGTGTACATTATTTATTATTATT [XGTACX_site6889]", "gcPBM binding intensity (ln)": 6.86}
{"sequence": "AAATAAAAAAAATAAAAGCAATCATAATAAAAATCT [CACACA_negctrl_site161]", "gcPBM binding intensity (ln)": 6.8}
{"sequence": "TGTATGTATTTGTGTAGTACGCATAAGTAATAAAAC [XGTACX_site6704]", "gcPBM binding intensity (ln)": 7.84}
{"sequence": "TACCAAAAGAAACACACACACAAAATATATAAATAT [CACACA_site1869]", "gcPBM binding intensity (ln)": 6.96}
{"sequence": "TCCCATATATATATATATATATATATATATAATAAT [TGCATGCA_negctrl_site41]", "gcPBM binding intensity (ln)": 7.98}
{"sequence": "ATACTTTTAATATGCACATGCAAATATGAAATATCG [TGCATGCA_site603]", "gcPBM binding intensity (ln)": 8.54}
{"sequence": "TTTGGCTAGTCAAGTTGTACAAAAAAAAAAAAAAAA [XGTACX_site8382]", "gcPBM binding intensity (ln)": 7.01}
{"sequence": "AAATATATATAAGCGTGTACACATTCTGAGTGTTGT [XGTACX_site1088]", "gcPBM binding intensity (ln)": 7.46}
{"sequence": "ATAATAAAAATAAAATGTACATACATAAATATATAT [XGTACX_site6228]", "gcPBM binding intensity (ln)": 7.09}
{"sequence": "TATCGTTTTATTCGGTTGCACCAAAAAAATAAAATA [GTGCAC_site9408]", "gcPBM binding intensity (ln)": 9.76}
{"sequence": "AGCTATAATAAATATACACACATATATAAATATGTA [CACACA_site6583]", "gcPBM binding intensity (ln)": 6.84}
{"sequence": "ATATATATATAATAAGTGCAAAAATAATGACCTATA", "gcPBM binding intensity (ln)": 8.89}
{"sequence": "AAAAAAAATTAAAATAAAATATAAATATAAAATATA [GTGCAC_negctrl_site714]", "gcPBM binding intensity (ln)": 6.57}
{"sequence": "TATATATTTTTATGCACACACAAAGAAAATTTTCCT [CACACA_site2863]", "gcPBM binding intensity (ln)": 7.94}
{"sequence": "AAAGTATAACGGATACCATTTATGTGATTATTTTGT [XGTACX_negctrl_site188]", "gcPBM binding intensity (ln)": 6.87}
{"sequence": "GAAATAATTTTTATTTGTACACACATACATATATAT [XGTACX_site1862]", "gcPBM binding intensity (ln)": 7.36}
{"sequence": "AAATTTTATAAAGGAACACACATTTTTTTTTTTTCT [CACACA_site2368]", "gcPBM binding intensity (ln)": 6.71}
{"sequence": "TTATTCATTTCGAAAAGTACAAATTCTGTTTATTAT [XGTACX_site6892]", "gcPBM binding intensity (ln)": 7.04}
{"sequence": "CCACTAATTATGTGCACACAAATTAAAGGTCTACAA [CACACA_site4259]", "gcPBM binding intensity (ln)": 9.75}
{"sequence": "TTTTGTCGGAAATCGGATAAGAAGAAAAAAAATAAT [GTGCAC_negctrl_site594]", "gcPBM binding intensity (ln)": 7.07}
{"sequence": "AAAAAAAAAAAATACGTGCACTATGATATATTATAT", "gcPBM binding intensity (ln)": 10.3}
{"sequence": "AAAAAAAAAAAAAGTACACACATACATATAAATATA [CACACA_site8533]", "gcPBM binding intensity (ln)": 7.64}
{"sequence": "TTCACTCCATATTATACACACACACTAATGAAAAAA [CACACA_site8991]", "gcPBM binding intensity (ln)": 7.44}
{"sequence": "ATAATATTTATAAATTGTACTAATGTTCAATAATTA [XGTACX_site7284]", "gcPBM binding intensity (ln)": 6.92}
{"sequence": "AAATGAAAAATAAGGAAAAAAAAAAAAAAAAAAAAA [CACACA_negctrl_site1715]", "gcPBM binding intensity (ln)": 6.88}
{"sequence": "TAAAATATTTCAAAGGTGCAATGATAATTTAAGACG [GTGCAC_site9609]", "gcPBM binding intensity (ln)": 10.4}
{"sequence": "ATATTGACAGGAAAAATTTTCTTTGAATCTTTAAAA [CACACA_negctrl_site1191]", "gcPBM binding intensity (ln)": 6.79}
{"sequence": "TATGTTATATTGGACACACACAATAAACATTATGTA [CACACA_site1657]", "gcPBM binding intensity (ln)": 7}
{"sequence": "ATATATATATATAAGCGTACGCGTAGTTAAATTAAT [XGTACX_site7693]", "gcPBM binding intensity (ln)": 9.27}
{"sequence": "ACAAAAAAAATAAGCACACATATATATATATATATA [CACACA_site816]", "gcPBM binding intensity (ln)": 9.39}
{"sequence": "TACATGATAAGATGTAGTACATAAAAGAATAAATTA [XGTACX_site787]", "gcPBM binding intensity (ln)": 6.95}
{"sequence": "TTTTCAAAAATATATACACACATGCATATTACGGTG [CACACA_site775]", "gcPBM binding intensity (ln)": 6.98}
{"sequence": "ACGATAACATTTTTACGTACATATATTTTCACGGAG [XGTACX_site8764]", "gcPBM binding intensity (ln)": 7.24}
{"sequence": "TATTCAATACTTAATGCACACAATAAAAAAAATATG [CACACA_site2467]", "gcPBM binding intensity (ln)": 8.1}
{"sequence": "AAAAAAATAACAAAAGTGCATTTTTATGAGTTATCT", "gcPBM binding intensity (ln)": 9.41}
{"sequence": "ATATATAATTAATAAAGTACATTAATTATTTCTTTT [XGTACX_site3034]", "gcPBM binding intensity (ln)": 6.77}
{"sequence": "AGATACAAGCACTATAGTACACATACTAAAAATATA [XGTACX_site5849]", "gcPBM binding intensity (ln)": 7.3}
{"sequence": "TATAATTAAAATTTGTGTACGTATGACAAAACATTT [XGTACX_site7072]", "gcPBM binding intensity (ln)": 6.85}
{"sequence": "TTTCCTTACCCTTTCCTGGTGTAGAAATTATACTCT [TGCATGCA_negctrl_site116]", "gcPBM binding intensity (ln)": 7.12}
{"sequence": "TTAAAATTTTTCAAAAGTACATAAATAATATATATT [XGTACX_site4694]", "gcPBM binding intensity (ln)": 7.21}
{"sequence": "AATATATTATATATATGTACATAATGTGTAATACCT [XGTACX_site2845]", "gcPBM binding intensity (ln)": 7.22}
{"sequence": "TTTATTTGTTCATGCGTGCACTTGATAACAATGTAC [GTGCAC_site9561]", "gcPBM binding intensity (ln)": 9.9}
{"sequence": "GGAAAAAAATATAAAAGTACTTTTTATTTATTTTAT [XGTACX_site7418]", "gcPBM binding intensity (ln)": 6.96}
{"sequence": "TTTTTTTTTGTTAAAGTGCATATATTAAATTTTCCT [GTGCAC_site9677]", "gcPBM binding intensity (ln)": 7.95}
{"sequence": "AAAAAAAATTCATATTGTACTTTTAAATTAAAGAAA [XGTACX_site4521]", "gcPBM binding intensity (ln)": 6.78}
